From the supplement of paper PMC11417369
The other results are listed elsewhere or left out.

System: PfSIP2 AP2 domain 1 (GST-tagged)
Test: gcPBM binding intensity (ln(normalized median fluorescence intensity)); higher = stronger DNA binding
Outline: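 In this array assay, P. falciparum DNA-binding domains with a GST tag, expressed in E. coli, were applied for 1 h to primer-extended double-stranded 36-bp intergenic genomic probes and negative controls on an Agilent 4 × 180k array. Bound protein was visualised with Alexa488 anti-GST antibody at 488 nm. Binding intensity is the highest Masliner-normalised natural-log median intensity across replicate spots of either probe orientation.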

Sequence	gcPBM binding intensity (ln)
TTATAACAACTGGAATGATTAACAATAAATATTAAA [CACACA_negctrl_site1723]	6.72
AGGAGACTTAAAAAAAGTACAAAAAAAAAAAAAAGC [XGTACX_site1576]	7.23
TATACATATATAAATGCATGTTGATATTAATAGTTA [TGCATGCA_site639]	7.03
ACAGAAAAAAAACACACACACATAATATACATACAT [CACACA_site1932]	7.15
TATTTTTTTTTCTTTTTATATATAATAATCTTCATT [GTGCAC_negctrl_site80]	6.86
TTTTTTTTTTTTTTTTGTACGTATCAAAAAATTTGT [XGTACX_site1023]	7.19
AAAAATAAATTTAGTTGTACTTTATTATTTTAAATA [XGTACX_site3067]	6.83
AATCAATAAATAAAAACATGCATATATATATATATA [TGCATGCA_site438]	9.52
CATTAATAAAAAAAAAGTACAAAAAATATATATATT [XGTACX_site2091]	7.1
AAAATAAAAATATTCACACATACAAAAATTATACAA [CACACA_site5136]	6.99
ATTTTTTTACTGTAACCATATTTTTCCCTTTTATTC [CACACA_negctrl_site1143]	6.94
ATAATATATATATATAGTACATATATATAATATTCT [XGTACX_site2445]	7.07
AAGAAAAACTTTACGTGTACCAAACATCCTGCCAAC [XGTACX_site598]	6.97
ATAGACAGCGCACAAACACACAAACACCCACCCACA [CACACA_site8043]	7.3
AGTGATACTAATTTTTGTACGCATAAAAGAATATTC [XGTACX_site6055]	6.97
TATATTGATGATGATAGTACGTATGATTAGAAAAAA [XGTACX_site8989]	7.27
AAAAAAAAAAAAATACGTACATACATACCTACATAT [XGTACX_site233]	7.21
TATATATATATGTGTACACAATTTATCTGTATTTAT [CACACA_site5945]	9.28
GAATAATATATATATTGTACTTTTTATTTATATTAT [XGTACX_site3180]	7.16
AAAATATAATATAATGCACACATAAAACAAAAAAAA [CACACA_site8989]	7.38
AAAAAAAAATTAATATATAAAAGGATATATATATAT [GTGCAC_negctrl_site449]	8.95
ATATATATATTTATATGTACGAAATATAAAAAAAAA [XGTACX_site5054]	8.15
CTTTTTTTTTTTTTTACACACCCAAATCACATACAT [CACACA_site4051]	7.47
ACATATAAATATATTACACACACACTAAAAAAATAA [CACACA_site6209]	7.09
